Measured values as given in PubChem BioAssay AID2147 (National Center for Advancing Translational Sciences (NCATS), 2009).
Hit rate of the full screen: of about 230,000 compounds, about 3,600 (1.6%) were called active. Inconclusive means that the source gave no clear call. Such entries were picked first, then a sample of the others. Calls follow the shape of the dose curve; as a rule, active = well fitted inhibition curve with a large enough effect (not every such curve was filed as active); inconclusive = small, poorly fitted or top-dose-only effect, or another doubt; inactive = no such curve, though single readings can be large or run the other way. A potency beside an inconclusive call is a rough fit, not a confirmed value.

Target: Lysine-specific demethylase 4E (Homo sapiens) (UniProt B2RXH2)
Experiment: qHTS Assay for Inhibitors of Human Jumonji Domain Containing 2E (JMJD2E)
Settings: JMJD2E catalytic domain, FDH-coupled NADH fluorescence (FDH is formaldehyde dehydrogenase); series mostly up to 57.1 µM
Also: nearly all actives have a fitted effect of over 50% in size.
Potency is read from the fitted curve at half-maximal effect; tags tell the direction and shape of the fitted curve.

Sequence of UniProt B2RXH2 (B2RXH2 whole entry, looked up, the tested form may be a part): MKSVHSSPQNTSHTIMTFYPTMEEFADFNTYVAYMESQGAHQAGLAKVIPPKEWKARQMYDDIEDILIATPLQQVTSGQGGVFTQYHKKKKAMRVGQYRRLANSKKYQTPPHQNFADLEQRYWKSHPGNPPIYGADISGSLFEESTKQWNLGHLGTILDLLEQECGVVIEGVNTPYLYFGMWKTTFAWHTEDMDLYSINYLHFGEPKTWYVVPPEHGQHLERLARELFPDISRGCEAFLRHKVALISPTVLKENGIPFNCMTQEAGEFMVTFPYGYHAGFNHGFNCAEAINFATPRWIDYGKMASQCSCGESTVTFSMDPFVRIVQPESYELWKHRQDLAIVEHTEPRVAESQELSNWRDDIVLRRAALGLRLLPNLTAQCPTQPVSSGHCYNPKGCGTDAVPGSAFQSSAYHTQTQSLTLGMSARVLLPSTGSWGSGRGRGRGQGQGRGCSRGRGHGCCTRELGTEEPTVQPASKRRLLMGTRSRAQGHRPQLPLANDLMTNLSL

Question: For `Cc1ccc(S(=O)(=O)N2CCN(CC(=O)N/N=C\c3ccc(O)c(O)c3)CC2)cc1`, which Potency is on record?
Answer: active: 15.8 µM

Question: For `CCCc1cc(=O)[nH]c(SCC(=O)NCCC2=CCCCC2)n1`, which Potency is on record?
Answer: inactive

Question: How did the Potency turn out when `Cc1cccc(N2CCN(C(=O)c3c(C)nn(Cc4ccccc4Cl)c3C)CC2)c1C` was run?
Answer: inactive

Question: `CC(Oc1ccc(Cl)cc1Cl)c1ccnc2nc(N3CCOCC3)nn12` (stereo not given) was tested. Which Potency did it give?
Answer: inconclusive: 35.5 µM [inhibitor, single point]

Question: With `CS(=O)(=O)N1CCN(CCN2C(=O)c3cccc4cccc(c34)C2=O)CC1` as the compound, how does the Potency read?
Answer: inconclusive: 5.62 µM [inhibitor, single point]

Question: `CC(=O)Nc1ccc(NC(=O)COC(=O)c2c(C)nn(-c3ccccc3)c2C)cc1` was tested. Which Potency did it give?
Answer: inactive

Question: For `COc1ccc(S(=O)(=O)Nc2cccc(N(C)S(C)(=O)=O)c2)cc1Br`, which Potency is on record?
Answer: inactive

Question: Which Potency does the source give for `O=[N+]([O-])c1ccc(NC(=S)N/C(=N/CS(=O)(=O)c2ccccc2)c2ccccc2)cc1` here?
Answer: inactive

Question: How did the Potency turn out when `CCN(CC(=O)NC1CCCCCC1)S(=O)(=O)c1ccccc1` was run?
Answer: inactive

Question: `N#Cc1c(-c2ccccc2Cl)cc(C2CC2)nc1N` was tested. Which Potency did it give?
Answer: inactive

Question: With `COc1cccc(C(c2c(NC(=O)c3ccccc3)sc(C)c2C)N2CCN(C)CC2)c1` (stereo not given) as the compound, how does the Potency read?
Answer: inconclusive: 35.5 µM [inhibitor, single point]

Question: With `O=C1c2cccc3cc(Br)cc(c23)C(=O)N1Nc1ccc(Br)cc1` as the compound, how does the Potency read?
Answer: inactive

Question: `COC(=O)C1Cc2c([nH]c3ccccc23)C(C)N1` (stereo not given) was tested. Which Potency did it give?
Answer: inconclusive: 20 µM [inhibitor, partial curve]

Question: With `Cc1ccc(/C=C(\NC(=O)c2ccccc2)C(=O)N2CCCC2C(=O)O)cc1` (stereo not given) as the compound, how does the Potency read?
Answer: inconclusive: 7.08 µM [inhibitor, partial curve]

Question: For `O=C(Nc1ccc(Cl)cc1)c1cc2c(cc1O)[nH]c1ccccc12`, which Potency is on record?
Answer: inconclusive: 28.2 µM [inhibitor, partial curve]

Question: Which Potency does the source give for `CN(C)CCNc1nc(-c2ccccc2)c2c(c1C#N)CC(C)(C)OC2` here?
Answer: inconclusive: 39.8 µM [inhibitor, single point]

Question: Which Potency does the source give for `Cc1ccc(-c2cnn(-c3cccc([N+](=O)[O-])c3)c2N)cc1` here?
Answer: inactive

Question: With `N#Cc1c(/N=C/c2cccs2)sc2c1CCCCC2` as the compound, how does the Potency read?
Answer: inactive

Question: For `Cc1ccc(-c2csc(NC(=O)c3ccno3)n2)cc1`, which Potency is on record?
Answer: inactive

Question: How did the Potency turn out when `CCOC(=O)N1CCc2c(sc(N)c2C#N)C1` was run?
Answer: inconclusive: 31.6 µM [inhibitor, single point]

Question: Which Potency does the source give for `CCOC(=O)N1CCC(N2CCCC(CO)(Cc3cccc(OC)c3)C2)CC1` (stereo not given) here?
Answer: inactive

Question: For `c1ccc(-c2nc(-c3ccco3)cs2)nc1`, which Potency is on record?
Answer: inconclusive: 31.6 µM [inhibitor, single point]

Question: Which Potency does the source give for `OCCNc1nc2ccccc2nc1NCCO` here?
Answer: inconclusive: 22.4 µM [inhibitor, partial curve]

Question: `O=C(Cc1ccccc1)N/N=C/c1ccc(OC(=O)/C=C\c2ccco2)cc1` was tested. Which Potency did it give?
Answer: inactive

Question: Which Potency does the source give for `COC(=O)[C@H](COC(C)(C)C)NC(=O)O[C@@H]1C(=O)c2ccc(OC)cc2O[C@H]1c1cccc(C(F)(F)F)c1` here?
Answer: inactive

Question: Which Potency does the source give for `O=C(NCCCN1CCOCC1)c1cnn2c(-c3ccccc3)cc(-c3ccccc3)nc12` here?
Answer: inconclusive: 28.2 µM [inhibitor, partial curve]

Question: For `CCOC(=O)c1c(NC(=O)C2c3ccccc3Oc3ccccc32)sc(C(=O)N(CC)CC)c1C`, which Potency is on record?
Answer: inactive

Question: For `COc1cc(NC(=O)c2c(Cl)cnn2C)c(OC)cc1Cl`, which Potency is on record?
Answer: inconclusive: 28.2 µM [inhibitor, partial curve]

Question: For `CC1CCN(C(=O)C2CCC(CNS(=O)(=O)c3cccc4cccnc34)CC2)CC1` (stereo not given), which Potency is on record?
Answer: inactive

Question: With `CCOC(=O)c1c(NC(=O)CSc2nc3cccnc3n2C)sc(C(C)=O)c1C` as the compound, how does the Potency read?
Answer: inactive

Question: How did the Potency turn out when `S=C(NC1CCCC1)N1CCN(c2ccccn2)CC1` was run?
Answer: inconclusive: 39.8 µM [inhibitor, single point]

Question: Which Potency does the source give for `Cc1nn(-c2ccccc2)c(N2CCCC2)c1/C=N/Nc1ccc(S(=O)(=O)Nc2ccccc2)cc1[N+](=O)[O-]` here?
Answer: inactive

Question: With `COC(=O)c1[nH]c2ccccc2c1NC(=O)C(C)N1CC(C)OC(C)C1` (stereo not given) as the compound, how does the Potency read?
Answer: inconclusive: 39.8 µM [inhibitor, single point]

Question: With `COc1cc2cc(CN(CCO)S(=O)(=O)c3ccccc3Cl)c(=O)[nH]c2cc1OC` as the compound, how does the Potency read?
Answer: inconclusive: 25.1 µM [inhibitor, partial curve]

Question: For `O=C(O)C1CCN(C(=O)COc2ccc3c4c(c(=O)oc3c2)CCC4)CC1`, which Potency is on record?
Answer: inconclusive: 25.1 µM [inhibitor, partial curve]

Question: `O=C1CCC/C(=N/NC(=O)c2ccc(CN3c4cccc5cccc(c45)S3(=O)=O)cc2)C1` was tested. Which Potency did it give?
Answer: inconclusive: 28.2 µM [inhibitor, single point]

Question: With `CC(C)c1ccc(/C=C/C(=O)n2nnc3ccccc32)cc1` as the compound, how does the Potency read?
Answer: inactive

Question: Which Potency does the source give for `CCOC(=O)c1cc(C(=O)OCC)c(=O)[nH]c1C` here?
Answer: inactive

Question: For `Cc1ccc(NC(=O)COC(=O)c2cc(Cl)cc(Cl)c2)c(Br)c1`, which Potency is on record?
Answer: inactive

Question: How did the Potency turn out when `CC(=O)C1C(=O)C=C(c2ccco2)CC1c1ccccc1` (stereo not given) was run?
Answer: inconclusive: 35.5 µM [inhibitor, single point]

Question: `Cc1cc(Cl)ccc1OCC(=O)N1CCN(c2ncccn2)CC1` was tested. Which Potency did it give?
Answer: inconclusive: 35.5 µM [inhibitor, single point]

Question: Which Potency does the source give for `Fc1cccc(F)c1/C=N/N1CCOCC1` here?
Answer: inactive

Question: With `COc1ccc(C2CC(c3ccc(Br)cc3)=NN2C(=O)CSC2=NCCS2)cc1` (stereo not given) as the compound, how does the Potency read?
Answer: inconclusive: 35.5 µM [inhibitor, single point]

Question: How did the Potency turn out when `Cc1ccc(NC(=O)C(=O)NCc2ccc(/C=C(/C#N)C(=O)NCc3cccnc3)o2)cc1` was run?
Answer: inconclusive: 22.4 µM [inhibitor, partial curve]

Question: Which Potency does the source give for `CCOc1nc(C)ccc1-c1noc(-c2ccccc2OC)n1` here?
Answer: inconclusive: 25.1 µM [inhibitor, single point]

Question: How did the Potency turn out when `COC(=O)N/N=C/c1cn(CCOc2ccccc2)c2ccccc12` was run?
Answer: inactive

Question: `Cc1ccc2c(c1)C1CN(C)CCC1N2C(=O)c1ccccc1NS(=O)(=O)c1ccc(F)cc1` (stereo not given) was tested. Which Potency did it give?
Answer: inconclusive: 39.8 µM [inhibitor, single point]

Question: With `O=C(NCc1cccs1)C1CCC(CNS(=O)(=O)c2cccs2)CC1` (stereo not given) as the compound, how does the Potency read?
Answer: inactive

Question: With `CCN1CCCC1Cn1cnc2c([nH]c3ccc(OC)cc32)c1=O` (stereo not given) as the compound, how does the Potency read?
Answer: inconclusive: 31.6 µM [inhibitor, partial curve]

Question: Which Potency does the source give for `c1ccc(-c2ncc3ccccn23)cc1` here?
Answer: inconclusive: 6.31 µM [inhibitor, full curve]

Question: How did the Potency turn out when `CCn1nc(NC(=O)Cc2ccc(OC)cc2)c2cc3cc(C)ccc3nc21` was run?
Answer: inconclusive: 35.5 µM [inhibitor, single point]

Question: How did the Potency turn out when `N#Cc1ccc(COC(=O)c2cc(=O)c3ccccc3o2)cc1` was run?
Answer: inactive

Question: With `Cc1c(Cl)c([N+](=O)[O-])nn1Cc1ccc(C(=O)N/N=C\c2cc(Cl)ccc2O)o1` as the compound, how does the Potency read?
Answer: inconclusive: 39.8 µM [inhibitor, single point]

Question: Which Potency does the source give for `COc1ccccc1-c1cncnc1-n1ccnc1` here?
Answer: inconclusive: 35.5 µM [inhibitor, single point]

Question: For `COCCNC(=O)C(C#N)c1nc2ccccc2nc1N1CCCCCC1` (stereo not given), which Potency is on record?
Answer: inconclusive: 39.8 µM [inhibitor, single point]

Question: For `COc1ccc(C(=O)NCc2csc(-c3cccs3)n2)cc1`, which Potency is on record?
Answer: inconclusive: 31.6 µM [inhibitor, partial curve]

Question: With `CCOCc1nnc(NC(=O)c2cc(OC)cc(OC)c2)s1` as the compound, how does the Potency read?
Answer: inconclusive: 35.5 µM [inhibitor, single point]

Question: Which Potency does the source give for `CCCS(=O)(=O)c1cn2cccc(N)c2c1S(=O)(=O)CCC` here?
Answer: inconclusive: 35.5 µM [inhibitor, single point]

Question: With `COCCNC(=O)c1n[nH]c2ccccc12` as the compound, how does the Potency read?
Answer: inconclusive: 28.2 µM [inhibitor, partial curve, poor fit]

Question: For `Oc1cc2c(cc1O)C(c1ccccc1)CNCC2` (stereo not given), which Potency is on record?
Answer: active: 20 µM

Question: For `COc1ccc2[nH]cc(CCNc3nc(-c4ccccc4CN(C)C)nc4ccccc34)c2c1`, which Potency is on record?
Answer: inconclusive: 35.5 µM [inhibitor, single point]

Question: With `O=C(c1c[nH]c(C(=O)N2CCN(Cc3ccccc3)CC2)c1)C1CCCCC1` as the compound, how does the Potency read?
Answer: inactive

Question: With `CCNC(=S)Nc1ccc(N(c2ccccc2)C(C)C)cc1` as the compound, how does the Potency read?
Answer: inconclusive: 35.5 µM [inhibitor, single point]

Question: `COc1cc2c(=O)n(Cc3ccccc3)c(=O)n(CC(=O)NCCc3ccccc3)c2cc1OC` was tested. Which Potency did it give?
Answer: inconclusive: 28.2 µM [inhibitor, partial curve]

Question: Which Potency does the source give for `COc1ccc(C(=O)/C=C/C(=O)N(CC(=O)NC2CCCCC2)Cc2ccc(F)cc2)c(O)c1` here?
Answer: inconclusive: 10 µM [inhibitor, partial curve]

Question: Which Potency does the source give for `NC(=O)c1cnn2c(C(F)(F)F)cc(-c3ccc(F)cc3)nc12` here?
Answer: inconclusive: 31.6 µM [inhibitor, partial curve]

Question: How did the Potency turn out when `CCOc1cccc(N2C(=O)CC(n3cnc4ccccc43)C2=O)c1` (stereo not given) was run?
Answer: inactive

Question: `c1ccc(COc2ccc(OCCOCCn3cncn3)cc2)cc1` was tested. Which Potency did it give?
Answer: inactive

Question: `CCCCOc1ccc(/C=C/C(=O)OCC(=O)NC(=O)NCC(C)C)cc1OCC` was tested. Which Potency did it give?
Answer: inactive

Question: For `Nc1nonc1-c1nc2ccccc2n1CC(=O)O`, which Potency is on record?
Answer: inconclusive: 39.8 µM [inhibitor, single point]

Question: `Cc1nn(-c2ccccc2)c(C)c1NC(=O)COc1ccc(F)cc1Cl` was tested. Which Potency did it give?
Answer: inactive

Question: `Cc1nnc2n(Cc3ccccc3)c(=O)c3c4c(sc3n12)CN(Cc1ccccc1)CC4` was tested. Which Potency did it give?
Answer: inconclusive: 39.8 µM [inhibitor, single point]

Question: How did the Potency turn out when `Cc1cc(NS(=O)(=O)c2ccc(NC(=O)CSc3nc4sc(C)c(C)c4c(=O)[nH]3)cc2)no1` was run?
Answer: inactive

Question: Which Potency does the source give for `Cc1cc(C(=O)COC(=O)c2ccco2)c(C)n1Cc1ccco1` here?
Answer: inactive

Question: With `NC(=S)N/N=C1\CC(n2nnn(-c3cccc(Cl)c3)c2=S)C2COC1O2` (stereo not given) as the compound, how does the Potency read?
Answer: inactive
